# Data as given in paper PMC4336329 (PLoS ONE, 2015).
# Out of some 310,000 compounds screened, about 14,000 (4.5%) showed an effect of 50% or more. The effect is printed as a negative number. Some of the results follow.
# Molecular target: human ether-à-go-go-related gene (hERG) potassium channel (human, UniProt Q12809)
# Test: primary screen, population patch clamp on CHO cells stably expressing hERG
# 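Also: peak tail current of the secondary pulse compared with the same well before compound.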
# Sequence of human ether-à-go-go-related gene (hERG) potassium channel (Q12809 whole entry, looked up): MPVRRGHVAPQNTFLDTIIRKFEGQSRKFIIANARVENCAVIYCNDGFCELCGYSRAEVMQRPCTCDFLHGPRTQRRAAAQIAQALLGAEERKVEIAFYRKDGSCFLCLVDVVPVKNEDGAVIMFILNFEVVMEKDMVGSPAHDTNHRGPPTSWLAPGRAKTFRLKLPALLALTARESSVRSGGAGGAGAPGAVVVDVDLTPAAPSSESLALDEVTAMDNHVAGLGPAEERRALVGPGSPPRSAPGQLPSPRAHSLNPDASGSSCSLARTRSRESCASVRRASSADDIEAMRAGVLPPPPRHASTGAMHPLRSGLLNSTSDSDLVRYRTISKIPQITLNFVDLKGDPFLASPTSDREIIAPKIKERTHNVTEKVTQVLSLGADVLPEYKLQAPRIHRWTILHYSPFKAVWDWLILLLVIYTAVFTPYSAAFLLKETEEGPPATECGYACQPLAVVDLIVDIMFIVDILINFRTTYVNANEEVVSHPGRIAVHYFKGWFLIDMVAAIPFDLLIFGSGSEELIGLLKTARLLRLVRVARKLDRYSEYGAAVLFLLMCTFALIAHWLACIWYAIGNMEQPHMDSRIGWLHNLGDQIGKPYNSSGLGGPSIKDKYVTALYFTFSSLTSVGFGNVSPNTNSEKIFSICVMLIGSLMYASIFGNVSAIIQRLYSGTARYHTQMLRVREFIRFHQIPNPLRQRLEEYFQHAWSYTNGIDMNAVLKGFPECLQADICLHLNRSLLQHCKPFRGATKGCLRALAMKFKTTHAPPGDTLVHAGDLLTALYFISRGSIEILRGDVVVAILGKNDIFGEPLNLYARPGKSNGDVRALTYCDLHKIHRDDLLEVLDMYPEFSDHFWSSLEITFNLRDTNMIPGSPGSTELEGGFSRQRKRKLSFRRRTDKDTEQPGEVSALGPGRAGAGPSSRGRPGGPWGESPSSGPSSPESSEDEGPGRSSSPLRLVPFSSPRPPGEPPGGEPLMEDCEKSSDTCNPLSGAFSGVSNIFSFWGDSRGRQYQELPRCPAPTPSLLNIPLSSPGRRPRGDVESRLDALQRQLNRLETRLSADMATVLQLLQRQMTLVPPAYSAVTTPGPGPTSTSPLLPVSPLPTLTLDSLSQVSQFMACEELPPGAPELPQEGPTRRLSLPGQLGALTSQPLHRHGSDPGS
row,SMILES,"hERG current change (%, negative = inhibition) at 10uM [%]"
1,CC1(C)NC(=O)N(CCOCCSc2ccccc2)C1=O,-2.95
2,O=C(Cc1c(F)cccc1Cl)NCc1cccnc1,17.7
3,CCN1CCN(C(=O)c2c(-c3ccccc3)noc2C)CC1,9.72
4,CCCN(CC(=O)Nc1ccccc1C)C(=O)c1ccc2ccccc2n1,2.67
5,CCOC(=O)C1=C(C)OC(N)=C(C#N)C1c1cncc(-c2ccc(F)cc2)c1 (stereo not shown),-36
6,CCOC(=O)CCCNC(=O)COC(=O)c1cc2ccccc2cc1O,-3.46
7,COc1ccc(-c2noc(CN(C)S(=O)(=O)c3ccc(Cl)cc3)n2)cc1OC,-9.85
8,CC1CC(C)(C)NCc2ccccc21.Cl (stereo not shown),9.07
9,Cc1ccc(CNC(=O)NCc2ccccc2)cc1,9.2
10,C=CCOc1cccc(CNc2ccc3[nH]c(=O)[nH]c3c2)c1,2.07
11,Cc1ccc2nc(C)c(C(=O)N/N=C/c3ccc(N4CCOCC4)cc3)cc2c1,-9.11
12,Cc1ccc(S(=O)(=O)N(CC(=O)N2CCC(C)CC2)c2cccc(C)c2)cc1,-55.1
13,CCOC(=O)CN1N=C(c2ccc(Cl)s2)CSC1=O,11.5
14,Cn1c(=O)c(=O)n(C)c2cc(S(=O)(=O)NCCOc3ccccc3Cl)ccc21,1.26
15,CCOC(=O)N1CCN(C(=O)CSCC(=O)Nc2nc(-c3ccc(Cl)s3)cs2)CC1,-19.6
16,COc1cc2c(cc1OC)C(C1c3cc4c(cc3CCN1C)OCO4)OC2=O (stereo not shown),4.1
17,COc1cccc(CN2CCN(C(=O)Nc3ccc([N+](=O)[O-])cc3)CC2)c1,-57.2
18,COc1ccccc1NC(=O)c1ccc(NC(=O)CNC(=O)c2ccc(OC)c(OC)c2)cc1,-7.26
19,COc1ccc(C2CCN(Cc3cccnc3)CC2O)cc1 (stereo not shown),-2.49
20,Cn1c2ccccc2c(=O)c2cc(C#Cc3ccccn3)ccc21,-0.776
21,Cc1ccc(C(=O)C2=C(O)C(=O)N(Cc3cccnc3)C2c2cccc([N+](=O)[O-])c2)o1 (stereo not shown),-9.76
22,CC(=O)c1ccc(Nc2nc(C)cc(C)n2)cc1,4.62
23,COC(C/C=C\C(=O)COCc1ccccc1)OC,10.3

row,SMILES,"hERG current change (%, negative = inhibition) at 10uM [%]"
1,Cc1ccc2c(c1)=NC(=O)/C(=C/c1c(O)[nH]c(=O)[nH]c1=O)C=2,11.8
2,CCOC(=O)c1c(C)oc2ccc(OCC(=O)N(CC)CC)cc12,-8.1
3,COc1cc(NC(=O)C2CC2C)c(C(=O)O)cc1OC (stereo not shown),10.1
4,CCOC(=O)N1CCN(C/C(C)=C/c2ccccc2)CC1,-25.1
5,Cc1ccccc1NC(=O)CN1C(=O)N/C(=C\c2ccc(N3CCOCC3)c(F)c2)C1=O,10.8
6,Cc1cc(C(F)F)n2ncc(C(=O)O)c2n1,-2.47
7,Cc1cc(=S)c2ccccc2[nH]1,14.9
8,Cc1nc(C(=O)N2CCCC(C(=O)c3ccc(Cl)cc3)C2)cs1 (stereo not shown),-16.3
9,CCN1CCN(CCOc2cccc(Cl)c2Cl)CC1.O=C(O)C(=O)O,-3.27
10,COc1ccc2c(c1OC)C(=O)N(c1ccc(C)c(C)c1)C2=O,7.8
11,CC1CCC(C(=O)NC(C(=O)NCCc2ccc(S(N)(=O)=O)cc2)C(C)C)CC1 (stereo not shown),-3.08
12,COc1ccc(N=C2SCCCN2C)cc1.I,11.7
13,O=C(CN1C(=O)NC2(CCOc3ccccc32)C1=O)Nc1ccc(Br)cc1F (stereo not shown),-8.21
14,CCN(CC)C(=O)CCCOc1ccc(Cl)cc1Cl,-3.88
15,COc1ccc(-c2nc(N)nc(C(F)(F)F)c2-c2ccccc2OC)c(O)c1,-0.92
16,Cc1cccc(-n2c(C)cc(/C=N\NC(=O)c3cccs3)c2C)c1,7.32
17,Cc1[nH]n2cnnc2c(=O)c1Br.O=S(=O)(O)O,23.1
18,COc1ccccc1CNC(=O)C1CCN(S(=O)(=O)c2cccc([N+](=O)[O-])c2)CC1,-3.34
19,CC(=O)c1cccc(NC(=O)c2cc(Cl)sc2Cl)c1,5.28
20,O=C(Nc1ccc(NC(=O)c2cccs2)cc1)c1ccco1,4.64
21,COc1ccc(CNC(=O)CN2CCN(S(=O)(=O)c3cccs3)CC2)cc1OC,1.64
22,CN1CCCC(C(=O)C(C#N)c2ccccc2)C1 (stereo not shown),12.4
23,Cc1cccc(CC(=O)OCn2nnc3ccccc3c2=O)c1,-25.1
